Screen size: about 410,000 compounds; about 5,000 (1.2%) were called active. Inconclusive means that the source gave no clear call. Such entries were picked first, then a sample of the others. The call rests on the fitted dose curve; in most records, active means well fitted inhibition curve with a large enough effect; inconclusive means small, poorly fitted or top-dose-only effect; inactive means no such curve, though single readings can be large or run the other way. Potencies of inconclusive entries are doubtful fits and often do not repeat.
test: qHTS for Inhibitors of TGF-b; conditions: HepG2 CAGA-GFP TGF-b/SMAD3 reporter, GFP fluorescence, 18 h, TGF-beta stimulated, 500 pg/mL final; series mostly up to 46.1 µM; further: nearly all actives have a fitted effect of over 65% in size
Summary of the method: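 First, reporter cells (HEPG2 CAGA-GFP) rested 2 h at 37 degrees C. Next, compounds were pinned in and TGF-beta added to 500 pg/mL final. After 18 h, GFP was imaged per cell and summed per well.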
Potency means the concentration at half of the fitted maximal effect; tags describe the fitted curve by direction and shape.

| SMILES | Potency |
| --- | --- |
| C=C1C(=O)O[C@H]2C[C@H]1[C@@H](OC(C)=O)C/C(C)=C/CC/C(C)=C\CC[C@]2(C)O | active: 3.16 µM |
| CN(C(=S)NC(=O)C12CC3CC(CC(C3)C1)C2)c1ccc(O)cc1 | inconclusive: 35.5 µM [inhibitor, single point] |
| CCN(CC(=O)NCc1cccs1)C(=O)/C=C/c1cccc(Cl)c1Cl | inconclusive: 0.501 µM [inhibitor, full curve, poor fit] |
| CC(C)(C)S(=O)N1Cc2cc(C(=O)NCC(F)(F)F)nc(-c3cccc(-c4cccc(F)c4)c3)c2[C@@H]1CCO (stereo not given in full) | inconclusive: 15.8 µM [inhibitor, single point] |
| CC(c1ccccc1)N(C)C(=O)CN1CCN(S(=O)(=O)c2ccc3c(c2)OCCCO3)CC1 (stereo not given) | inconclusive: 35.5 µM [inhibitor, single point] |
| CCN1C(=NCc2cccc(Cl)c2)N[C@@H](c2cccc(F)c2)C(C(=O)OC)=C1C | inconclusive: 28.2 µM [inhibitor, single point] |
| COc1cccc(N2CCN(c3ncnc4c3cnn4-c3ccc(C)cc3C)CC2)c1 | inconclusive: 14.1 µM [inhibitor, single point] |
| CN(C)S(=O)(=O)c1cccc(NC(=O)COC(=O)/C=C/c2ccc([N+](=O)[O-])cc2)c1 | inactive |
| C=CCn1c(SCc2ccc(C(=O)NCCO)cc2)nc2ccccc2c1=O | inconclusive: 12.6 µM [inhibitor, single point] |
| O=C(O)CC/C(=N\Nc1ccc(S(=O)(=O)N2CCCC2)cc1[N+](=O)[O-])c1cccs1 | inconclusive: 22.4 µM [inhibitor, single point] |
| COc1ccc(-c2nnc(SCC(=O)c3[nH]c(C)c(C(C)=O)c3C)o2)cc1 | inactive |
| COC(=O)c1ccccc1NC(=O)c1c(C)oc2ncn(C)c(=O)c12 | inconclusive: 5.62 µM [inhibitor, single point] |
| COc1ccc(OCc2nc3ccccc3n2Cc2ccccc2Cl)cc1 | inconclusive: 35.5 µM [inhibitor, single point] |
| COc1cc(NC(=O)CN2CCN(c3ccccc3O)CC2)c(C)cc1[N+](=O)[O-] | inconclusive: 11.2 µM [inhibitor, single point] |
| Cc1sc(NC(=O)c2ccco2)c(C(c2ccccc2)N2CCC(C)CC2)c1C (stereo not given) | inconclusive: 7.08 µM [inhibitor, full curve, poor fit] |
| Cc1ccc(C2=NN(C(=O)CSc3nnnn3C)C(c3ccco3)C2)cc1 (stereo not given) | inconclusive: 35.5 µM [inhibitor, single point] |
| COc1ccc2c3c(ccc2c1)C(=O)/C(=C/O)CC3 | inconclusive: 35.5 µM [inhibitor, single point] |
| CN1C2Cc3c(n(C)c4ccccc34)C1CC=C2CO (stereo not given) | inconclusive: 35.5 µM [inhibitor, single point] |
| CCOC(=O)C1=CCC(c2ccccc2C)N(S(=O)(=O)c2ccc(C)cc2)C1 (stereo not given) | inconclusive: 22.4 µM [inhibitor, single point] |
| CCOc1cc(C(=O)OCc2cc(=O)n3nc(CC)sc3n2)cc(OCC)c1OCC | inconclusive: 0.251 µM [inhibitor, full curve] |

| SMILES | Potency |
| --- | --- |
| CN1CCc2c(sc(NC(=O)Cc3ccccc3)c2C(N)=O)C1 | inactive |
| CC(=O)Nc1ccc(N(C(=O)CNC(=O)c2cccs2)C(C(=O)NCC2CCCO2)c2ccccc2)cc1 (stereo not given) | inconclusive: 11.2 µM [inhibitor, partial curve] |
| C/C(=N\NC(=O)c1cc(Br)ccc1O)c1ccccn1 | inconclusive: 25.1 µM [inhibitor, single point] |
| COc1ccccc1/C=C/C=N/NC(=O)CN1CCN(S(=O)(=O)c2ccc(C)cc2)CC1 | inconclusive: 3.55 µM [inhibitor, full curve, poor fit] |
| CCOc1ccc(NC(=O)/C(C=Nc2ccccc2)=C(\C)O)cc1 | inconclusive: 0.447 µM [inhibitor, full curve, poor fit] |
| CCOC(=O)c1c(C)n(-c2ccccc2)c2ccc(OC(=O)c3ccccc3NC(=O)C(C)(C)C)cc12 | inconclusive: 15.8 µM [inhibitor, partial curve, poor fit] |
| CC1(C(=O)NCc2cccc(C(F)(F)F)c2)CCN1Cc1cc2ccccc2o1 (stereo not given) | inconclusive: 17.8 µM [inhibitor, single point] |
| Clc1ccccc1-c1ccc2ncnc(NCc3ccc4c(c3)OCO4)c2c1 | inconclusive: 12.6 µM [inhibitor, partial curve, poor fit] |
| COC1=Nc2ccccc2/C=C\c2ccccc21 | inconclusive: 3.55 µM [inhibitor, single point] |
| Cc1ccc(OCC(O)Cn2c(=N)n(CCN3CCCCC3)c3ccccc32)cc1 (stereo not given) | inconclusive: 14.1 µM [inhibitor, partial curve, poor fit] |
| COc1c(C)cccc1C(=O)Nc1ccc(N2CCN(C(=O)c3ccccc3C)CC2)cc1 | inconclusive: 35.5 µM [inhibitor, single point] |
| COc1ccc(C2C(C#N)=C(SCC(=O)Nc3ccc(C)cc3)NC3=C2C(=O)CC(C)(C)C3)cc1 (stereo not given) | inconclusive: 1.12 µM [inhibitor, full curve, poor fit] |
| COc1cc(/C=C2/S/C(=N/S(=O)(=O)c3ccccc3)NC2=O)c([N+](=O)[O-])cc1OC | inconclusive: 7.08 µM [inhibitor, partial curve, poor fit] |
| CCCCCCCCN1[C@@H](CC(=O)OCC)c2cc(F)ccc2S1(=O)=O | inactive |
| C[C@@H]1CCCCO[C@@H](CN(C)S(=O)(=O)c2cccs2)[C@@H](C)CN([C@H](C)CO)C(=O)c2cc(NS(=O)(=O)c3ccccc3)ccc2O1 | inconclusive: 35.5 µM [inhibitor, single point] |
| Cc1cc(N2CCCC2)ccc1NC(=O)COc1cccc(C(F)(F)F)c1 | inconclusive: 8.91 µM [inhibitor, partial curve, poor fit] |
| COc1ccccc1[C@H]1C(c2cccc(C)c2)=NN(c2ccccc2)[C@@H]1CO | inconclusive: 35.5 µM [inhibitor, single point] |
| C[C@@H]1CN([C@@H](C)CO)C(=O)c2cccc(NC(=O)c3nc4ccccc4s3)c2O[C@@H]1CN(C)CC1CC1 | inconclusive: 22.4 µM [inhibitor, single point] |
| CCN1CCN(c2cc(C)c3cc(NC(=O)c4cc(Cl)ccc4OC)ccc3n2)CC1 | inconclusive: 25.1 µM [inhibitor, single point] |
| Cc1ccc(N(Cc2cccs2)C(=O)COc2cccc(C)c2)cc1 | inconclusive: 12.6 µM [inhibitor, partial curve, poor fit] |

| SMILES | Potency |
| --- | --- |
| Cc1cccc2c1NC(=O)C21N2CCCC2C(C(=O)c2ccc3ccccc3c2)C12C(=O)Nc1ccccc12 (stereo not given) | inconclusive: 6.31 µM [inhibitor, single point] |
| NC1=NC2(CCCCC2)N=C(Nc2ccc(Br)cc2)N1 | inactive |
| Cc1cccc(N2CCN(C(=O)CCSCc3ccccc3F)CC2)c1C | inconclusive: 35.5 µM [inhibitor, partial curve, poor fit] |
| CN(C)S(=O)(=O)N(CC(=O)Nc1ccc(S(=O)(=O)N2CCCC2)cc1)c1ccccc1 | inconclusive: 0.891 µM [inhibitor, full curve, poor fit] |
| FC(F)(F)c1ccccc1-c1ccc2nncn2c1 | inconclusive: 35.5 µM [inhibitor, single point] |
| CC(C)(Oc1ccc(Cl)cc1)C(=O)NCC(c1ccco1)N1CCCCC1 (stereo not given) | inconclusive: 11.2 µM [inhibitor, partial curve, poor fit] |
| O=C(CSC1=Nc2ccccc2C2CC=NN12)Nc1ccc2c(c1)OCO2 (stereo not given) | inconclusive: 22.4 µM [inhibitor, single point] |
| CN(C)S(=O)(=O)c1cccc(C(=O)Nc2cc(Cl)ccc2O)c1 | inconclusive: 14.1 µM [inhibitor, single point] |
| CC(C)(C)OC(=O)N1CCC(c2c(C(=O)NCC3CCN(C4CCCC4)C3)cnn2-c2cccc(Cl)c2)CC1 (stereo not given) | inconclusive: 35.5 µM [inhibitor, single point] |
| O=C(CSc1nnc(Nc2ccccc2)s1)NN1C(=O)NC2(CCCCC2)C1=O | inconclusive: 35.5 µM [inhibitor, single point] |
| CCCCC(=O)N(C)c1c(CC)nc2c(OCCOc3ccccc3)cccn12 | inactive |
| CCN1C(=O)C2(c3ccccc31)c1c(oc3ccc(F)cc3c1=O)C(=O)N2CCCOC (stereo not given) | inactive |
| N#Cc1ccccc1OCC(=O)N1CCc2ccccc2C1 | inactive |
| c1ccc(CNc2ncnc3nc[nH]c23)nc1 | inactive |
| O=C1CN(C(=O)Nc2ccccc2C(F)(F)F)C(c2ccccc2)c2c(sc3c2CCCC3)N1 (stereo not given) | inconclusive: 22.4 µM [inhibitor, single point] |
| Cc1c(Cl)cccc1NC(=S)N1CCc2ccccc2C1 | inactive |
| COc1ccc(/C=N/Nc2nnc(Cc3ccc(OC)c(OC)c3)c(=O)[nH]2)cc1 | inconclusive: 5.62 µM [inhibitor, single point] |
| CCCCN1C(=O)C(CC(=O)NCc2cccc3ccccc23)CC(C(=O)N(C)C)=C1C (stereo not given) | inactive |
| O=C(N/N=C/c1ccc(O)cc1)c1ccc(COc2cc(Cl)ccc2Cl)o1 | inconclusive: 14.1 µM [inhibitor, single point] |
| CCOC(=O)Cn1nnnc1CN(Cc1ccc(OC)cc1)Cc1cc2cc(CC)ccc2[nH]c1=O | inconclusive: 35.5 µM [inhibitor, single point] |
